# According to PubChem BioAssay (NCATS):
# Where “and” joins values, the source holds several entries; their conditions need not be identical. Equal values may be shown once. The list shows a part of the results. These are further read-outs of the screen, such as a control signal, another cell line or another target. No call is given for them. Compounds called inactive in the main read-out are mostly missing here. For some assays here: Words in brackets tell the shape of the fitted curve; partial curves, single points and poor fits give uncertain potencies.
# Columns and labels:
# [1] = qHTS Assay for Lipid Storage Modulators (AID 1519); conditions: Drosophila S3 cells, BODIPY lipid droplet/cell ratio, laser cytometry, cells loaded with oleic acid
# In short: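 Cells seeded at 5,000 per well were treated with compounds over a concentration series and loaded with oleic acid (400 uM, as added). Lipid droplet fluorescence (488 nm excitation, 500-530 nm channel) was read by laser-scanning cytometry and normalized to 20 uM Triacsin C.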
# [2] = qHTS Assay for Modulators of Human Peripheral Myelin Protein 22 (PMP22) Expression/Activity (AID 1967); conditions: Cell-based PMP22 reporter, dual-color luciferase ratio
# In short: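 Mouse MSC80 Schwann line, Pmp22 promoter–CBG68 reporter, EF-alpha–CBR internal control. 24h compound exposure, 37 °C/5% CO2, DMEM + 10% FBS. Readout: corrected green/red luminescence ratio, normalized to untreated cells; concentration-response curves fitted and classified.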
# [3] = qHTS Validation Assay to Find Inhibitors of Chronic Active B-Cell Receptor Signaling (AID 485345); conditions: ABC-DLBCL cells, chronic BCR signaling reporter
# In short: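 TMD8 ABC-DLBCL cells with dox-inducible green luciferase–IκBα fusion and red native luciferase; compounds 46 uM–3 nM, 4 h at 37C with doxycycline in 0.5% FBS IMDM. Green/red ratio normalized to basal and 10 uM MG-132.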
# [4] = qHTS assay for small molecule antagonists of peroxisome proliferator-activated receptor gamma signaling (AID 588537); conditions: HEK293 PPARg-UAS-bla, beta-lactamase ratio, antagonist mode; measured here: W460 blue channel
# In short: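 We seeded GeneBLAzer HEK293 reporter cells at 3000 per well, allowed 6-6.5 h attachment at 37 C, then co-treated with test compound titrations and 50 nM rosiglitazone overnight (16 h). Inhibition was quantified from 460/530 nm emission ratios.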
# [5] = qHTS Assay for Inhibitors of PDE-IV (AID 607); conditions: HEK293 ACTOne CNG channel cells, membrane potential fluorescence; measured here: parental cell counter-screen;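 also: parental cells stimulated with forskolin 10 µM plus RO 20-1724 100 µM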
# In short: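 Live HEK293 cells with a modified cyclic nucleotide-gated (CNG) channel report intracellular cAMP via membrane-potential dye fluorescence (ex 535/em 590 nm). Endogenous PDE-IV was targeted. Compounds were tested at up to 22.9 uM final; RO 20-1724 100 uM served as control.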
# [6] = Nrf2 qHTS screen for inhibitors: Validation (AID 493153); conditions: A549 ARE-Fluc reporter, 18-24 h; AC50: CellTiter-Fluor fluorescence read, measured here: cytotoxicity CellTiter-Fluor AC50; viability change: measured here: cytotoxicity max response
# In short: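 Luminescence from an ARE-firefly luciferase reporter in A549 cells gives Nrf2 inhibition; an earlier CellTiter-Fluor fluorescent read flags cytotoxicity. Cells in 5% FBS OPTI-MEM received compound dilution series for 18-24 h at 37°C.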
# [7] = qHTS assay for small molecule agonists of retinoid X receptor alpha signaling (AID 588544); conditions: HEK293T RXRa-UAS-bla, beta-lactamase reporter, 18 h; 530 nm emission
# [8] = measured here: cell count channel max response
# [9] = measured here: cell number channel AC50
# [10] = measured here: lipid (BODIPY) channel AC50
# [11] = measured here: lipid channel max response
# [12] = measured here: green reporter channel AC50, mouse Pmp22 promoter in mouse Schwann cells
# [13] = measured here: red reporter channel AC50, EF-alpha promoter control reporter in MSC80 mouse Schwann cells
# [14] = measured here: CBG/CBR ratio read-out
# [15] = measured here: CBR control luciferase (viability counter)
# Tags tell the direction and shape of the fitted curve.
Structure (SMILES),"max response [1, 8]","AC50 [1, 9]","AC50 [1, 10]","max response [1, 11]","AC50 [2, 12]","AC50 [2, 13]","AC50 [3, 14]","AC50 [3, 15]",AC50 [4],AC50 [5],viability change [6] [%],max response [7] [%],AC50 [6]
NCCNS(=O)(=O)c1cccc2c(Cl)cccc12,50.2%,"14.1 µM [rising, partial curve, poor fit]","14.1 µM [rising, partial curve, poor fit]",67.3%,"60.1 µM [falling, partial curve]","67.5 µM [falling, partial curve]","14.6 µM [falling, single point]","8.2 µM [falling, single point]",,,,,
OC[C@H]1O[C@@H](n2cnc3c(NC4CCCC4)ncnc32)[C@H](O)[C@H]1O,62%,"15.8 µM [falling, single point]","15.8 µM [falling, single point]",65.3%,"42.6 µM [falling, partial curve]","95.3 µM [falling, single point]",,,,,,,
CN1CCN(c2nc3cc(C(F)(F)F)ccc3n3cccc23)CC1,104%,"35.5 µM [rising, partial curve]","31.6 µM [rising, partial curve]",130%,"67.5 µM [falling, partial curve]","84.9 µM [falling, partial curve]","20.6 µM [falling, single point]",,,,,,
NS(=O)(=O)c1cc2c(cc1Cl)NCNS2(=O)=O,53.7%,"15.8 µM [falling, single point]","15.8 µM [falling, single point]",54%,,"95.3 µM [falling, single point]",,,"89.1 µM [rising, single point]",,,,
COC(=O)[C@H](NC(=O)c1cc(-c2ccccc2)nc2ccccc12)c1ccccc1,144% and 79.9%,"20 µM [rising, partial curve]","20 µM [rising, partial curve]",182% and 87.1%,"84.9 µM [falling, single point]","84.9 µM [falling, single point]",,,,"12.6 µM [rising, partial curve]",,,
COC(=O)c1c(C)[nH]c(C)c1C(=O)c1ccccc1Cc1ccccc1,83% and 7.24%,"2 µM [rising, full curve]","1.58 µM [rising, full curve]",102% and 4.13%,"84.9 µM [falling, single point]","84.9 µM [falling, single point]",,"2.31 µM [rising, partial curve, poor fit]",,,,,
Cc1ccc(OCC(O)C(C)NC(C)C)c2c1CCC2 (stereo not given),51.9%,"39.8 µM [rising, single point]","44.7 µM [rising, single point]",54.1%,"95.3 µM [falling, single point]","95.3 µM [falling, single point]",,,,,,,
O=C(c1ccc(F)cc1)C1CCN(CCn2c(=O)[nH]c3ccccc3c2=O)CC1,5.18% and 71.4%,"35.5 µM [rising, partial curve, poor fit]","39.8 nM [rising, full curve, poor fit] and 39.8 µM [rising, partial curve, poor fit]",5.3% and 88.1%,"84.9 µM [falling, single point]","84.9 µM [falling, single point]",,,,,,,
C[C@H](Cc1ccccc1)Nc1ncnc2c1ncn2[C@@H]1O[C@H](CO)[C@H](O)[C@H]1O,37.1%,"0.00316 µM [rising, full curve, poor fit]","0.00316 µM [rising, full curve, poor fit]",39.2%,"6.75 µM [rising, full curve, poor fit]","6.01 µM [rising, partial curve]",,,,,,,
COc1ccc(/C=C/C(=O)Nc2ccccc2C(=O)O)cc1OC,57.1%,"44.7 µM [rising, partial curve, poor fit]","44.7 µM [rising, partial curve, poor fit]",57.8%,,"7.57 µM [falling, full curve]","4.11 µM [falling, partial curve]","2.06 µM [falling, full curve]",,,-0.88,,
COc1cc2c(cc1C(F)(F)F)N(C(=O)Nc1cc(F)cc(-c3cccnc3)c1)CC2,45.8% and -41.5%,"1.41 µM [rising, full curve, poor fit]","1.41 µM [rising, full curve]",67.2% and -46.4%,"10.7 µM [falling, full curve]","8.49 µM [falling, full curve]",,,,,,,
CCN(c1nc(N)c(C(=O)N=C(N)N)nc1Cl)C(C)C,39%,"39.8 µM [rising, single point]","39.8 µM [rising, single point]",39.6%,"75.7 µM [falling, single point]","67.5 µM [falling, partial curve, poor fit]",,,,,,,
O=Nc1ccc2oc(=O)ccc2c1,-38.3%,"8.91 µM [falling, full curve, poor fit]","20 µM [falling, partial curve, poor fit]",-79.6%,"67.5 µM [falling, partial curve]","21.3 µM [falling, partial curve]","16.4 µM [falling, partial curve]","7.31 µM [falling, partial curve]",,,,,
CC[C@H](NC(=O)c1c(C)c(-c2ccccc2)nc2ccccc12)c1ccccc1,94.7% and -7.09%,"8.91 µM [rising, partial curve]","11.2 µM [rising, partial curve]",120% and -9.02%,"60.1 µM [falling, partial curve, poor fit]","67.5 µM [falling, partial curve, poor fit]",,,,"15.8 µM [rising, partial curve] and 10 µM [rising, partial curve]",,,
CC(C)Cn1c(=O)n(C)c(=O)c2[nH]cnc21,19.7% and 36.5%,"0.0224 µM [rising, full curve, poor fit]","39.8 µM [rising, single point] and 39.8 µM [rising, partial curve, poor fit]",34.7% and 50.9%,,,,"0.58 µM [falling, partial curve, poor fit]",,,,,
O=C(Nc1ccccc1)c1cc([N+](=O)[O-])ccc1Cl,90.7% and -73.3%,"15.8 µM [rising, partial curve, poor fit] and 31.6 µM [falling, partial curve, poor fit]","35.5 µM [falling, partial curve, poor fit]",117% and -76.8%,"75.7 µM [falling, partial curve]","19 µM [falling, full curve]",,"3.26 µM [rising, full curve, poor fit]","28.2 µM [falling, partial curve, poor fit]",,,19,
OC[C@H]1O[C@@H](n2cnc3c(N[C@H]4CC5CCC4C5)ncnc32)[C@H](O)[C@@H]1O (stereo not given in full),59.3%,"1 µM [falling, full curve, poor fit]","1 µM [falling, full curve, poor fit]",61.2%,"84.9 µM [falling, single point]","60.1 µM [falling, partial curve, poor fit]",,,,,,,
Cn1cc(C(=O)OCC2CCN(CCNS(C)(=O)=O)CC2)c2ccccc21,61.2% and 58.9%,"28.2 µM [rising, partial curve, poor fit] and 35.5 µM [rising, partial curve]","31.6 µM [rising, partial curve, poor fit] and 35.5 µM [rising, partial curve]",63.3% and 62.7%,"67.5 µM [falling, partial curve]","84.9 µM [falling, single point]",,,,,,,
C[C@@H](NC(=O)/C(C#N)=C/c1ccc(O)c(O)c1)c1ccccc1,34.7% and -41.4%,"14.1 µM [rising, partial curve, poor fit] and 5.01 nM [falling, full curve, poor fit]","0.00501 µM [falling, full curve, poor fit]",-6.42% and -51.5%,,"30.1 µM [falling, full curve]","14.6 µM [falling, partial curve]",,,,-24.7,,"13 µM [falling, partial curve, poor fit]"
CCn1c(=O)[nH]c2cc(Cl)c(Cl)cc21,92.5% and 76%,"28.2 µM [rising, partial curve]","31.6 µM [rising, partial curve]",121% and 77.3%,,"84.9 µM [falling, single point]",,,,,-10.4,,
CC(C)CN(C)c1nc(N)c(C(=O)N=C(N)N)nc1Cl,-8.73%,"15.8 µM [falling, partial curve, poor fit]","15.8 µM [falling, partial curve, poor fit]",-6.76%,"75.7 µM [falling, single point]","75.7 µM [falling, partial curve, poor fit]",,,,,,,
